Results reported in the supplement of paper PMC8728848.
The list shows a part of the results.

Key:
Test in all cases: glycan array binding signal (z-score within array); higher = stronger binding
Conditions in all cases: glycan notation: IUPAC condensed, linker removed
[1] = molecular target: Gal(b1-4)GlcNAc(b1-3)Gal(b1-4)GlcNAc(b1-6)[Gal(b1-3)]GalNAc
How it was run: (§1)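 From the Consortium for Functional Glycomics database, 3228 arrays were curated, keeping only those whose protein sequence was available. Binding is given as a within-array Z-score averaged across arrays sharing a protein sequence and across linkers. Negative Z-scores can be read as non-binding.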

[2] = molecular target: Gal(b1-4)GlcNAc(b1-3)Gal(b1-4)[Fuc(a1-3)]GlcNAc(b1-3)Gal(b1-4)[Fuc(a1-3)]GlcNAc
How it was run: as §1

[3] = molecular target: Gal(b1-4)GlcNAc(b1-3)GalNAc
How it was run: as §1

[4] = molecular target: Gal(b1-4)GlcNAc(b1-3)[Fuc(a1-3)GlcNAc(b1-6)]Gal(b1-4)Glc
How it was run: as §1

[5] = molecular target: Gal(b1-4)GlcNAc(b1-3)[Gal(b1-4)GlcNAc(b1-6)]Gal(b1-4)GlcNAc
How it was run: as §1

[6] = molecular target: Gal(b1-4)GlcNAc(b1-3)[GlcNAc(b1-6)]Gal(b1-4)GlcNAc
How it was run: as §1

[7] = molecular target: Gal(b1-4)GlcNAc(b1-6)Gal(b1-4)GlcNAc
How it was run: as §1

[8] = molecular target: Gal(b1-4)GlcNAc(b1-6)GalNAc
How it was run: as §1

[9] = molecular target: Gal(b1-4)GlcNAc(b1-6)[Gal(b1-3)]GalNAc
How it was run: as §1

[10] = molecular target: Gal(b1-4)GlcNAc(b1-6)[Gal(b1-4)GlcNAc(b1-3)]GalNAc
How it was run: as §1

Gal(b1-4)GlcNAc6P = molecular target: Gal(b1-4)GlcNAc6P
How it was run: as §1

Gal(b1-6)Gal = molecular target: Gal(b1-6)Gal
How it was run: as §1

Gal3S(b1-3)GalNAc = molecular target: Gal3S(b1-3)GalNAc
How it was run: as §1

Gal3S(b1-3)GlcNAc = molecular target: Gal3S(b1-3)GlcNAc
How it was run: as §1

[11] = molecular target: Gal3S(b1-3)[Fuc(a1-4)]GlcNAc
How it was run: as §1

Gal3S(b1-4)Glc = molecular target: Gal3S(b1-4)Glc
How it was run: as §1

Gal3S(b1-4)Glc6S = molecular target: Gal3S(b1-4)Glc6S
How it was run: as §1

Gal3S(b1-4)GlcNAc = molecular target: Gal3S(b1-4)GlcNAc
How it was run: as §1

[12] = molecular target: Gal3S(b1-4)[Fuc(a1-3)]Glc6S
How it was run: as §1

[13] = molecular target: Gal3S(b1-4)[Fuc(a1-3)]GlcNAc
How it was run: as §1

[14] = molecular target: Gal3S(b1-4)[Fuc(a1-3)]GlcNAc6S
How it was run: as §1

Gal3S4S(b1-4)GlcNAc = molecular target: Gal3S4S(b1-4)GlcNAc
How it was run: as §1

B1: Epa10 (protein)
chain: MNEKIFRYLTLLFLFELARSLPVEDKLNIKKVFEKRAVDFTPFAHYPRPEGCSSPPNSVSVGLHMNLYNYPYLYVKPSTKGMFTNDTNSDADGETDGDSAGGIEGRAGQCWNPEYQDPNFPRFGYKQYGEFGASDNVNGDISWDHNEFTEGCKPVLAALPPGYNYPDEITFSNFTMVLSGYFKPKTSGVYKFELKADDFILFNFGAKNAFECCNREESIDNFGPYVAYAMWPNQADQELEVYLFEDSYYPLRLFYNNRDYHSKFKIGFYPPGQTTITFDFDGYLFMLDDTGNECRDSIRYRTVCDDKVVDDTTYSTRYSTSMVPGGGSDVITIYYIRMKCEEEDCLGQWDPINNVCYSPDDCADDGGYWNGQMCDQSCKLEGGIVNPDTGDCDKSCIESGGFLDENGNCDTTCRDDGGMLVEGQCDYQCKEAGGILVGDHCDTTCVDSGGKLNEDGTCDHSCRDQGGQLDENGECDTSCKDSGGMLIEGECDTSCKDEGGQLDDNNECINHCKDQGGIIDENGNCDTSCKDSGGKLDESGACDTSCRDDGGIIDENGNCNTTCRDDGGIIVGDHCDTSCRDAGGILIEDHCDTTCRDSGGKLNEDGTCDHSCRDQGGQLDENGKCDYSCKNGGGKLDEDGNCDMSCKENGGKLDENGDCDLSCKEDGGKLDGNGDCDYSCKEEGGVIDESGNCNTTCKDSGGQIIDGECNYGCIEVGGVVIDGECDTSCIDSGGILDGDGNCDRSCIESGGVLEDGACNTTCRDSGGQLNVDGTCDTSCRDDGGMLVEGQCDYQCKEAGGILEDGECVFPPTSSSTSETSSTTDQSSLQSDDSSMESSSTPMDSSTIESSSSEIITSESESESVPIASSSSEVMTSESESESIPILTSSSEIPIASSSSEIPVASSSSEIIIPESESESVPVASSSSEIPIASSSSEIPVASSSSEIPVASSSSEIIIPESESESIPIESTSSEAVSSRSESDSSYPTPTPTTTTITTWPNPIQPTTSNSSPIVSSSTETPGIAESSSRISDLESSRRTSILGDDRTRTRTTITSTITEDGQIITITTTVTGFVPEPTGETEGNGSDDENPENPIENNTDENEFLDPEFTDDIPDDPAGPEDNGNGPVNPEQGNDNDPVNLEDSGNNGAVNPEQAPVNDEDNGGNDPVNPEQDNNNGPANPGQDSTNGSGNSDQIDNNPPTPEENAGDGNSNGNDPADPSRRTSILGDERTRASPGGTSQPTGANGNVNGNSPGANVNGGGTGNSNNNNNNNNNNNNGNAPNGGDGSNGDANQGPSRRTSLLGDERTRAGQAAPTGGSSPDNGIAGDTSNNGGAIVSQQVDDGGAGSPRRTSILGDVRSRTTLNGEVLNFEGSGVRRAVAGNLALPLMMVGLVFNL
Question: For B1, which “glycan array binding signal (z-score)” value [1] is on record?
Answer: 1.3

Question: What about the “glycan array binding signal (z-score)” value [2] of the same binder?
Answer: -0.153

Question: And the “glycan array binding signal (z-score)” value [3]?
Answer: -0.211

Question: And the “glycan array binding signal (z-score)” value [4]?
Answer: -0.239

Question: And the “glycan array binding signal (z-score)” value [5]?
Answer: 0.167

Question: And the “glycan array binding signal (z-score)” value [6]?
Answer: -0.128

Question: What about the “glycan array binding signal (z-score)” value [7] of the same binder?
Answer: 0.004

Question: What about the “glycan array binding signal (z-score)” value [8] of the same binder?
Answer: -0.127

Question: And the “glycan array binding signal (z-score)” value [9]?
Answer: 2.59

Question: And the “glycan array binding signal (z-score)” value [10]?
Answer: 0.208

Question: What about the “glycan array binding signal (z-score)” value (Gal(b1-4)GlcNAc6P) of the same binder?
Answer: -0.29

Question: What about the “glycan array binding signal (z-score)” value (Gal(b1-6)Gal) of the same binder?
Answer: -0.2

Question: What about the “glycan array binding signal (z-score)” value (Gal3S(b1-3)GalNAc) of the same binder?
Answer: -0.245

Question: And the “glycan array binding signal (z-score)” value (Gal3S(b1-3)GlcNAc)?
Answer: -0.228

Question: And the “glycan array binding signal (z-score)” value [11]?
Answer: -0.251

Question: And the “glycan array binding signal (z-score)” value (Gal3S(b1-4)Glc)?
Answer: -0.218

Question: And the “glycan array binding signal (z-score)” value (Gal3S(b1-4)Glc6S)?
Answer: -0.187

Question: What about the “glycan array binding signal (z-score)” value (Gal3S(b1-4)GlcNAc) of the same binder?
Answer: -0.312

Question: What about the “glycan array binding signal (z-score)” value [12] of the same binder?
Answer: -0.1

Question: And the “glycan array binding signal (z-score)” value [13]?
Answer: -0.311

Question: What about the “glycan array binding signal (z-score)” value [14] of the same binder?
Answer: -0.35

Question: And the “glycan array binding signal (z-score)” value (Gal3S4S(b1-4)GlcNAc)?
Answer: -0.252
